Out of some 420,000 compounds screened, about 50,000 (12%) were called active. This list was built around the results that the source calls inconclusive (neither active nor inactive); the mix of calls is not that of the screen. Calls come from the whole dose curve; as a rule, active = well fitted inhibition curve with a large enough effect; inconclusive = small, poorly fitted or top-dose-only effect; inactive = flat fitted curve, though single readings scatter. No potency is given beside an inconclusive call; the fits are too rough.
Experiment: qHTS for Inhibitors of human tyrosyl-DNA phosphodiesterase 1 (TDP1): qHTS in cells in presence of CPT; note: nearly all actives have a fitted effect of over 55% in size
Settings: chicken DT40 Tdp1-/-;hTDP1 cells + 20 nM CPT, ATP luminescence, 48 h; activity change, negative = growth inhibition: at 46.2 µM (top of the series)
Summary of the method: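 Chicken DT40 Tdp1-/- cells complemented with human TDP1, 400 cells/well, exposed to compounds plus 20 nM camptothecin for at least 48 h at 37 C; viability read as ATP content by CellTiter-Glo luminescence.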
With `C/C(=N/NC(=O)C1CCN(S(=O)(=O)c2ccc(C)cc2)CC1)c1cccc([N+](=O)[O-])c1` the “activity change, negative = growth inhibition” value was inactive: -2.88%. For `O=C(Nc1ccc(C(=O)O)cc1)/C(=C\c1ccccc1)NC(=O)c1ccccc1`, the “activity change, negative = growth inhibition” value was inactive: 2.61%. In the case of `Cc1ccc(C)c(N2CCN(CCCNC(=O)c3cnn(-c4ccccc4)c3C3CCN(C(=O)OC(C)(C)C)CC3)CC2)c1`, the Potency is reported as active: 6.51 µM. In the case of `O=C1OCCOC2CCCc3oc(-c4ccccc4)c1c32` (configuration not stated), the “activity change, negative = growth inhibition” value is reported as inactive: -12.7%. For `CCCCNC(=O)CCn1ccc2cc(S(=O)(=O)N3CCCC3)ccc21`, the “activity change, negative = growth inhibition” value was inactive: -16.8%. In the case of `O=C(c1cccs1)N1N=C(c2ccc(O)cc2)CC1c1ccccc1` (configuration not stated), the Potency is reported as inconclusive [inhibitor, single point]. For `Cc1ccc(S(=O)(=O)N(C)c2ccc(OC(=O)c3cccs3)cc2)cc1`, the “activity change, negative = growth inhibition” value was inactive: -28%. In the case of `CCN(CC)S(=O)(=O)c1ccc2oc(C(=O)N3CCCCCC3)c(C)c2c1`, the Potency is reported as inconclusive [inhibitor, single point]. For `C[C@H](CO)N1C[C@H](C)[C@H](CN(C)Cc2ccc(-c3ccccc3)cc2)Oc2ccc(NS(=O)(=O)c3ccccc3)cc2CC1=O`, the Potency was active: 16.4 µM. With `O=C(CCSCc1ccccc1F)NCCc1ccccc1` the “activity change, negative = growth inhibition” value was inactive: 16.2%. With `O=C(Nc1cccc(C(F)(F)F)c1)c1cc(-c2cccs2)on1` the “activity change, negative = growth inhibition” value was inactive: -15.4%. With `CC1(C)C2CCC13CS(=O)(=O)N[C@@H]3C2` (some centres not stated) the Potency was inconclusive [inhibitor, single point]. With `COc1ccc(CN2[C@@H](CC(C)=O)c3cc(C(F)(F)F)ccc3S2(=O)=O)cc1` the Potency was active: 15.8 µM. For `Cc1ccc(-n2[nH]c(C)c(C=Nc3ccc(S(=O)(=O)Nc4nc(C)cc(C)n4)cc3)c2=O)c(C)c1`, the activity change, negative = growth inhibition was inconclusive: -31.4% [inhibitor]. In the case of `Cc1cc2cc(CNC(=O)c3ccco3)ccc2n1C`, the Potency is reported as inconclusive [inhibitor, single point]. For `COc1ccc(-c2nc3ccc(Br)cn3c2Cc2ccccc2C(F)(F)F)cc1OC`, the Potency was inconclusive [inhibitor, single point]. For `CC1(C)Cc2ccccc2-c2nnc(-c3ccco3)n21`, the “activity change, negative = growth inhibition” value was inactive: -15.7%. With `C/C(=N\NC(=S)NCc1ccccc1)c1ccc2c(c1)OCCO2` the Potency was active: 16.4 µM. In the case of `O=C(CN1CCCCC1)Nc1cc(Cl)ccc1Oc1ccccc1`, the Potency is reported as inconclusive [inhibitor, single point]. For `Cc1cccc(-c2noc(-c3ccccc3OCC(=O)Nc3ccccc3[N+](=O)[O-])n2)c1`, the Potency was inconclusive [inhibitor, single point]. With `COc1ccccc1Nc1c2c(nc3ccc(NC(=O)c4ccccc4F)cc13)CCCC2` the Potency was active: 5.17 µM. With `O=S(=O)(c1ccccc1)c1nc(-c2ccccc2)oc1N1CCCCC1` the Potency was inconclusive [inhibitor, single point]. For `COC(=O)CN1C(=S)N(c2ccc(F)cc2)C(=O)C1CC(=O)Nc1ccc(OC)cc1` (configuration not stated), the “activity change, negative = growth inhibition” value was inactive: -11%. For `COc1ccc(-n2cc(CNC3CCC(O)CC3)c(-c3cccc(F)c3)n2)cc1` (configuration not stated), the Potency was active: 20.6 µM. For `O=C(NC1CCN(Cc2ccccc2)CC1)c1ccccc1NS(=O)(=O)c1ccc(F)cc1`, the Potency was inconclusive [inhibitor, single point]. With `CCOC(=O)N1CCC(NC(=O)Cn2c3c(c(-c4ccccc4Cl)cc2=O)CCC3)CC1` the Potency was inconclusive [inhibitor, single point]. With `CCOc1ccc(C(=O)Nc2ccc3c(c2)OCCO3)cc1` the “activity change, negative = growth inhibition” value was inactive: 0.418%. In the case of `CNc1nc(-c2ccc(N(C)C)cc2)nc2ccccc12`, the Potency is reported as inconclusive [inhibitor, single point]. With `N#C/C(=C\c1cc2c(cc1Br)OCO2)C(=O)NCC1CCCO1` (configuration not stated) the Potency was inconclusive [inhibitor, single point]. For `CCC(=O)N1c2ccc(S(=O)(=O)CCC(=O)NCc3cccs3)cc2CC1C` (configuration not stated), the Potency was inconclusive [inhibitor, single point]. For `Cc1ccc(S(=O)(=O)NCc2ccncc2)cc1C(=O)NCC(C)C`, the Potency was active: 14.6 µM. With `CCN(CC)CCCNC(=O)c1cn(CC(C)C)c(=O)c2c1c1ccccc1n2C` the Potency was “inactive”. In the case of `COc1ccc(Cc2noc(CN(C)CCc3ccccc3)n2)cc1OC`, the Potency is reported as inconclusive [inhibitor, single point]. For `CC1(c2nnc(-c3ccncc3)o2)CC(c2c(Cl)cccc2Cl)=NO1` (configuration not stated), the Potency was inconclusive [inhibitor, partial curve]. With `CSCCC(NC(=O)c1ccco1)C(=O)Nc1ccc(C)cn1` (configuration not stated) the “activity change, negative = growth inhibition” value was inactive: 2.74%. For `O=C(NCc1ccc(Cl)cc1)C(=O)N/N=C/c1ccc(Br)cc1`, the “activity change, negative = growth inhibition” value was inactive: -20.5%. In the case of `C=CCn1c(SCCCC)nc(O)cc1=O`, the activity change, negative = growth inhibition is reported as inconclusive: 10.2% [inhibitor]. In the case of `C=C1CCC[C@]2(C)C[C@H]3OC(=O)C(CNCCN(CC)CC)[C@H]3CC12` (some centres not stated), the Potency is reported as inconclusive [inhibitor, single point]. With `O=C(COC(=O)c1ccc(NS(=O)(=O)c2cccs2)cc1)NCC1CCCO1` (configuration not stated) the “activity change, negative = growth inhibition” value was inactive: -2.8%. With `CCCCn1c(CNC(=O)CC)nc2ccccc21` the Potency was inconclusive [inhibitor, single point]. For `Cc1cccc(C)c1OCc1nnc(SCC(=O)Nc2ccc(N3CCOCC3)cc2)o1`, the “activity change, negative = growth inhibition” value was inactive: 1.52%. With `COc1ccc(OCC(=O)N(Cc2sccc2C)C2CCS(=O)(=O)C2)cc1` (configuration not stated) the Potency was “inactive”. With `COc1cccc(C(=O)N2[C@H](COCc3ccccc3)C=CS2(=O)=O)c1` the Potency was inconclusive [inhibitor, single point]. For `CC(C)CCNc1nc(N)c([N+](=O)[O-])c(NC2CCCCC2)n1`, the Potency was inconclusive [inhibitor, single point]. For `OC(CNCc1ccccc1)Cn1ccc2ccccc21` (configuration not stated), the “activity change, negative = growth inhibition” value was inactive: -18.6%. With `Cc1ccc(C)c(-n2c(CNC(=O)c3ccco3)nnc2SCC(=O)N2CCc3ccccc32)c1` the Potency was inconclusive [inhibitor, single point]. For `Cc1ccc(C)c(N2C(=O)N(Cc3cccc(C(F)(F)F)c3)c3ccccc3S2(=O)=O)c1`, the Potency was inconclusive [inhibitor, partial curve, poor fit]. With `Cc1cccc(N(CC(=O)NC2CCCCC2)C(=O)c2csnn2)c1` the “activity change, negative = growth inhibition” value was inactive: -0.22%. With `COc1ccc(NC(=O)c2cc(-c3cc(Cl)ccc3OC)n[nH]2)c(C)c1` the Potency was inconclusive [inhibitor, single point]. With `COC(=O)c1cccc(N2C(=O)C[C@](Sc3ccc(C)cc3)(C(=O)OC)[C@H]2c2ccccc2)c1` the Potency was inconclusive [inhibitor, single point]. In the case of `COC(=O)CC1C(C)(C)C(=O)C2CC3C4=CC(=O)OC(c5ccoc5)[C@]4(C)CCC3[C@@]1(C)C2=O` (some centres not stated), the “activity change, negative = growth inhibition” value is reported as inactive: 1.89%. For `CCN(CC)C(=O)Cn1c(=O)n(Cc2ccc(C(=O)NCCCOC)cc2)c(=O)c2ccccc21`, the “activity change, negative = growth inhibition” value was inactive: -0.78%. In the case of `O=C(Nc1nccs1)c1sc2cc(Cl)ccc2c1Cl`, the Potency is reported as inconclusive [inhibitor, single point]. With `Cc1ccccc1CNCCCSc1ncccn1` the “activity change, negative = growth inhibition” value was inactive: 11.2%. In the case of `COc1ccc(F)cc1S(=O)(=O)Nc1ccc2c(c1)CCCN2C(=O)c1cccs1`, the Potency is reported as inconclusive [inhibitor, single point]. In the case of `NS(=O)(=O)c1ccc(CCNC(=O)c2ccccc2Cc2ccccc2)cc1`, the Potency is reported as inconclusive [inhibitor, partial curve, poor fit]. For `CC1(C)C(C(N)=O)C(=O)NC(=O)C1C(N)=O` (configuration not stated), the Potency was inconclusive [inhibitor, partial curve, poor fit]. In the case of `Cc1cccc(C)c1NC(=O)C(c1ccccc1OC(F)(F)F)N1CCN(C/C=C/c2ccccc2)CC1` (configuration not stated), the Potency is reported as active: 16.4 µM. In the case of `CN(C)CCCCCN(C)Cc1cc2ccccc2o1`, the Potency is reported as inconclusive [inhibitor, single point]. For `Cc1ccc(NC(=O)COC(=O)c2ccc(=O)n(Cc3ccccc3)n2)cc1F`, the “activity change, negative = growth inhibition” value was inactive: 10.4%. In the case of `O=C(CCc1nnc(-c2ccc(-c3ccccc3)cc2)o1)NCCc1ccccn1`, the Potency is reported as inconclusive [inhibitor, single point]. In the case of `COC(=O)c1sccc1-c1ccc(C(=O)Nc2cccnc2)o1`, the Potency is reported as inconclusive [inhibitor, single point]. In the case of `CNC1(c2nnnn2-c2ccccc2C)CCOC(C)(C)C1` (configuration not stated), the Potency is reported as inconclusive [inhibitor, single point]. With `CCC(=O)Nc1nnc(Sc2ccc(N(C)C)cc2)s1` the “activity change, negative = growth inhibition” value was inactive: -5.89%. For `O=[N+]([O-])c1ccc(NS(=O)(=O)c2ccc(Cl)c(Cl)c2)cc1`, the Potency was active: 9.2 µM. With `O=C(Cc1cccs1)Nc1ccc(-c2nc3ccccc3[nH]2)cc1` the Potency was inconclusive [inhibitor, single point]. With `Cc1cc(C)cc(NC(=O)Cn2c(=O)oc3cc(S(=O)(=O)N4CCC(C)CC4)ccc32)c1` the Potency was active: 6.51 µM. For `CCOC(=O)C1=C(C)N=C2SCCC(=O)N2C1c1ccc(OCc2ccccc2)c(OC)c1` (configuration not stated), the Potency was inconclusive [inhibitor, single point]. In the case of `C[C@H](O)C#Cc1cnc2c(c1)C(=O)N([C@H](C)CO)C[C@@H](C)[C@H](CN(C)C(=O)Nc1ccc(C(F)(F)F)cc1)O2`, the Potency is reported as active: 11.6 µM. In the case of `COC(=O)c1sccc1S(=O)(=O)N(CC(=O)NCc1ccc(C)cc1)c1ccc(C)c(C)c1`, the Potency is reported as inconclusive [inhibitor, single point]. For `CC(=O)c1ccccc1OCCOCCOc1ccccc1C(C)=O`, the Potency was inconclusive [inhibitor, single point]. For `CCN(C(=O)CSc1nc2ccc([N+](=O)[O-])cc2s1)c1c(N)n(Cc2ccccc2)c(=O)[nH]c1=O`, the Potency was inconclusive [inhibitor, single point].

Reference: PubChem BioAssay AID686979 (National Center for Advancing Translational Sciences (NCATS), 2013)
% is set by controls: 0 for no effect and ±100 for the full control effect; potency is the fitted concentration of half-maximal effect; tags give direction and shape of the fitted curve.
